{"source": "the supplement of paper PMC11417369", "note": "± gives the standard deviation of the averaged measurements. Some of the results follow.", "data": [{"system": "PfAP2-EXP AP2 domain (GST-tagged)", "experiment": "gcPBM binding intensity (ln(normalized median fluorescence intensity)); higher = stronger DNA binding", "method_in_brief": "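An Agilent 4 × 180k array of primer-extended double-stranded 36-bp intergenic genomic probes, with negative controls, was incubated for 1 h with GST-tagged P. falciparum DNA-binding domains expressed in E. coli. Alexa488 anti-GST antibody detected bound protein, scanned at 488 nm. Binding intensity is the highest Masliner-normalised natural-log median intensity across replicate spots of either probe orientation.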", "values": [{"sequence": "CATACACGCGGACACACACACACACGCATATATAAC [CACACA_site6427]", "gcPBM binding intensity (ln)": "8.91 ± 0.34"}, {"sequence": "GAATAAATTAAATTCACACATAAAATACAAAATACA [CACACA_site5495]", "gcPBM binding intensity (ln)": "8.74 ± 0.35"}, {"sequence": "ATTATATTTGAATGGTGTACTATAATAATGTAGTTT [XGTACX_site8069]", "gcPBM binding intensity (ln)": "8.39 ± 0.35"}, {"sequence": "ACATATATATATATATAAATATATATGTATGTATTT [XGTACX_negctrl_site237]", "gcPBM binding intensity (ln)": "8.14 ± 0.13"}, {"sequence": "CTTATATTAATTATTACACACATATATATAAATGCA [CACACA_site770]", "gcPBM binding intensity (ln)": "8.41 ± 0.31"}, {"sequence": "AAAGAAAATAGGTGTACACATAATAAATACAGCTAT [CACACA_site5917]", "gcPBM binding intensity (ln)": "9.17 ± 0.41"}, {"sequence": "TTTCTTAAATATATGCGTACTCAAAATTGTTCTACA [XGTACX_site7995]", "gcPBM binding intensity (ln)": "8.45 ± 0.4"}, {"sequence": "AAAAATATAATATAATGTACACATAAACAAAAAAAA [XGTACX_site3658]", "gcPBM binding intensity (ln)": "8.79 ± 0.49"}, {"sequence": "TAACCACAAAAATAAAATCAAAAAAAAAAAAAAAAA [CACACA_negctrl_site1727]", "gcPBM binding intensity (ln)": "7.82 ± 0.2"}, {"sequence": "ATATATATATATTTCGCACACATAATCTTATTAAAT [CACACA_site2579]", "gcPBM binding intensity (ln)": "9.9 ± 0.17"}, {"sequence": "TAAAATAAAACAAACACACACACACCGACACAAAAA [CACACA_site5993]", "gcPBM binding intensity (ln)": "8.82 ± 0.41"}, {"sequence": "AACAGACATACATACACACATACATACAGACATACA [CACACA_site1942]", "gcPBM binding intensity (ln)": "8.7 ± 0.36"}, {"sequence": "ACATTCTATACATACACACCCACACCCAAAAAAAAA [CACACA_site863]", "gcPBM binding intensity (ln)": "9.29 ± 0.54"}, {"sequence": "TATATATCAATATACACACACACATATTTATTTATA [CACACA_site6858]", "gcPBM binding intensity (ln)": "8.53 ± 0.31"}, {"sequence": "TATAATTAATTAGAAGTGCATTAGGTAACAACTGTC [GTGCAC_site9746]", "gcPBM binding intensity (ln)": "8.9 ± 0.17"}, {"sequence": "CTATGCATTTATAGTGCATGTAAAATATAAGATAAT [TGCATGCA_site71]", "gcPBM binding intensity (ln)": "9.03 ± 0.32"}, {"sequence": "AACTATATATATAATTCACACATGTTTTAAAATTTT [CACACA_site4971]", "gcPBM binding intensity (ln)": "8.86 ± 0.33"}, {"sequence": "ATGTATCATAAGAACTGTGTGGTTACAGACACGAAC [GTGCAC_negctrl_site416]", "gcPBM binding intensity (ln)": "9.02 ± 0.47"}, {"sequence": "TACTATGCCCCATATAAACACACAAATAAAAAGAAT [CACACA_site8857]", "gcPBM binding intensity (ln)": "8.9 ± 0.4"}, {"sequence": "TATAAACCTACATACACACATACAATAAGTAAAATG [CACACA_site1921]", "gcPBM binding intensity (ln)": "8.8 ± 0.47"}, {"sequence": "ATATATTCTTATTGCTGTACACATATTTTCTAAAAA [XGTACX_site4851]", "gcPBM binding intensity (ln)": "9 ± 0.3"}, {"sequence": "TTTCCTTTTTTAATATGTACACATATTATTATATCT [XGTACX_site3079]", "gcPBM binding intensity (ln)": "8.78 ± 0.27"}, {"sequence": "AACGCAGTTTAATATACACACCAAAAAAAAAAAAAG [CACACA_site5643]", "gcPBM binding intensity (ln)": "8.37 ± 0.38"}, {"sequence": "TATGATATGTATGGAAGTACGAAGAGGGATGATCAG [XGTACX_site1677]", "gcPBM binding intensity (ln)": "8.96 ± 0.49"}]}]}
